Laboratory results from article PMC5241824.
Read-outs that look alike come from different tables or passages of the source. Results are given in words; binding and its absence hold for the method and conditions named. In cells and extracts the contact can be indirect. Some results given as binding are weak or reduced against the parent protein; the word gives no strength. For some assays here: Tags and fused reporters may be left off the sequences shown. Values belong to the molecule of their own block, whether it stands above or below them.

Chains of the proteins cited; added tags and fusions are not shown. Lines headed by an entry give the natural chain unless they say otherwise; changes in a name come on top. A line that says so, or that is headed by a name, gives the form on record, which may keep a tag or linker.
UniProt Q13309: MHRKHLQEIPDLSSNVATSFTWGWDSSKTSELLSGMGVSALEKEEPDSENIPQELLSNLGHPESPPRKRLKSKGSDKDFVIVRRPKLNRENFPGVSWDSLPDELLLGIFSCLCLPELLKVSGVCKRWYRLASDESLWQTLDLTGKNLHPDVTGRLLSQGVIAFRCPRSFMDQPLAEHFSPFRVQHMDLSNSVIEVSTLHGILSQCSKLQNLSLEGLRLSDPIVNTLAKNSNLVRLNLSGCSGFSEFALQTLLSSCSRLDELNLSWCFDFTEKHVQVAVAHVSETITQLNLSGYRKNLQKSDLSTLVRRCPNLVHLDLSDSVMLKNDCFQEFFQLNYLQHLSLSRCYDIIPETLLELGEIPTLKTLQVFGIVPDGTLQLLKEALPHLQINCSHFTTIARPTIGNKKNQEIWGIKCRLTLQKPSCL
SKP2-3A (Q13309, form named): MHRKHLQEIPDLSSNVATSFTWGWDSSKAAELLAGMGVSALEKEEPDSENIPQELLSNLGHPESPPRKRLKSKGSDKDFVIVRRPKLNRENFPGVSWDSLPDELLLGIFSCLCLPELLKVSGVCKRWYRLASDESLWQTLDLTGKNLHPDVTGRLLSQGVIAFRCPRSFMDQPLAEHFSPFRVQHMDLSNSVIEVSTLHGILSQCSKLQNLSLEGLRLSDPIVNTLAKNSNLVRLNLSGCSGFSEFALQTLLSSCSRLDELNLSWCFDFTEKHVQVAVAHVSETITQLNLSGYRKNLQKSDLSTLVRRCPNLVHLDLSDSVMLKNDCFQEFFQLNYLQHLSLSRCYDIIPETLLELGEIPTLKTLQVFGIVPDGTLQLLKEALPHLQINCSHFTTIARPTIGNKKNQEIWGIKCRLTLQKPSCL
UniProt Q9Y297: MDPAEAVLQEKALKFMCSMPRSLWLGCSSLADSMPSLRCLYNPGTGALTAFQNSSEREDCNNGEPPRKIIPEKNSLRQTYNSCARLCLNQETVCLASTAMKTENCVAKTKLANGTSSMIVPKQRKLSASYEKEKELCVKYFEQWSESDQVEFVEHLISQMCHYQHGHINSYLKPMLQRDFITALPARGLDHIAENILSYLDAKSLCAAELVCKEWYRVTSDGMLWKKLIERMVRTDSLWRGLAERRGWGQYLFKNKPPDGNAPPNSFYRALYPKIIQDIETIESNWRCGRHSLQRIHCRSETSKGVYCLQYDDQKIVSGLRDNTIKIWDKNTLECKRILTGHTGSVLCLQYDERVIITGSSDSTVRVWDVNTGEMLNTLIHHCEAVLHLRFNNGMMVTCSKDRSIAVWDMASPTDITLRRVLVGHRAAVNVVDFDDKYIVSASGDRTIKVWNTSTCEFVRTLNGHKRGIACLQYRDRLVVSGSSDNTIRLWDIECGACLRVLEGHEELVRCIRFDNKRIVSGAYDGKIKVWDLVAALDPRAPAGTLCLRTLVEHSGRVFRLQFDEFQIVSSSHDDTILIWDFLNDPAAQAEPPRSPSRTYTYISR

Columns and labels:
[1] = biological target: T1, FBXW2, ectopically expressed (tag not told) (UniProt Q9UKT8); assay: co-IP; F-box proteins transfected into 293 cells; immunoprecipitation of the transfected protein, IB for endogenous β-TrCP1 (Supplementary Fig. 1a)
T1 sequence: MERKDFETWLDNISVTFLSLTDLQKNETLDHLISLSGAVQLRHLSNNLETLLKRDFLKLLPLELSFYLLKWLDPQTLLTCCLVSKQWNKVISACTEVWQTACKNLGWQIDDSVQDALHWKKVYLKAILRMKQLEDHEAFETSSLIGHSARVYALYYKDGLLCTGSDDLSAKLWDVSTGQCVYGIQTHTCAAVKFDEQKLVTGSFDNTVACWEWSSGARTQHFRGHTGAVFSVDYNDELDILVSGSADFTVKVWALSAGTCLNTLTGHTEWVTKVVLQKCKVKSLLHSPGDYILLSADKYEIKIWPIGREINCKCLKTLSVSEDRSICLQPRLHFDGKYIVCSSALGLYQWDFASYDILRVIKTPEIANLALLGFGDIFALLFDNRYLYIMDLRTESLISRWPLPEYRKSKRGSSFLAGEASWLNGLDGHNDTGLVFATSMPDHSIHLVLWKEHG

[2] = biological target: T2, FBXW2, endogenous (human (endogenous in H1299)) (UniProt Q9UKT8); assay: co-IP; endogenous proteins; H1299 whole cell extracts pre-cleared with normal IgG-AC, overnight at 4 °C with antibody against FBXW2, β-TrCP, FBXL3, FBXL11 or SKP2; IB
T2 sequence: T1 sequence

[3] = biological target: T3, FLAG-FBXW2 (FLAG-tagged FBXW2), wild type (human) (UniProt Q9UKT8); assay: co-IP; co-transfected tagged proteins; pre-cleared lysates with bead-conjugated FLAG antibody overnight at 4 °C; IB (Fig. 2b; Fig. 4b in H1299, HA IB)
T3 sequence: T1 sequence

[4] = biological target: T1, FBXW2, ectopically expressed (tag not told); assay: co-IP; both proteins ectopically overexpressed (Supplementary Fig. 1d); details not shown
[5] = biological target: T1, FBXW2, ectopically expressed (tag not told); assay: co-IP; β-TrCP1-FBXW2 binding in cells, control and with GRK2 siRNA silencing (Supplementary Fig. 2e,f); details not shown
[6] = biological target: T2, FBXW2, endogenous (human (endogenous in H1299)); assay: co-IP; endogenous proteins; H1299 whole cell extracts pre-cleared with normal IgG-AC, overnight at 4 °C with antibody against FBXW2, β-TrCP, FBXL3, FBXL11 or SKP2; IB; remark: listed apart in the source
[7] = biological target: SKP2, endogenous (human (endogenous in H1299)) (UniProt Q13309); assay: as above
[8] = biological target: β-TrCP1 (β-transducin repeat-containing protein 1), endogenous (human (endogenous in 293, H1299, A549)) (UniProt Q9Y297); assay: as above
[9] = biological target: SKP2, wild type, tagged (Fig. 4b) (UniProt Q13309); assay: co-IP; co-transfected tagged proteins; pre-cleared lysates with bead-conjugated FLAG antibody overnight at 4 °C; IB (Fig. 2b; Fig. 4b in H1299, HA IB)
SKP2-3A = SKP2-3A (UniProt Q13309); assay: as above

Molecule: HA-β-TrCP1 (from UniProt Q9Y297 1-605)
- binding [3]: binds

B1: FBXL11, endogenous (protein, UniProt Q9Y2K7 1-1162)
chain: MEPEEERIRYSQRLRGTMRRRYEDDGISDDEIEGKRTFDLEEKLHTNKYNANFVTFMEGKDFNVEYIQRGGLRDPLIFKNSDGLGIKMPDPDFTVNDVKMCVGSRRMVDVMDVNTQKGIEMTMAQWTRYYETPEEEREKLYNVISLEFSHTRLENMVQRPSTVDFIDWVDNMWPRHLKESQTESTNAILEMQYPKVQKYCLMSVRGCYTDFHVDFGGTSVWYHIHQGGKVFWLIPPTAHNLELYENWLLSGKQGDIFLGDRVSDCQRIELKQGYTFVIPSGWIHAVYTPTDTLVFGGNFLHSFNIPMQLKIYNIEDRTRVPNKFRYPFYYEMCWYVLERYVYCITNRSHLTKEFQKESLSMDLELNGLESGNGDEEAVDREPRRLSSRRSVLTSPVANGVNLDYDGLGKTCRSLPSLKKTLAGDSSSDCSRGSHNGQVWDPQCAPRKDRQVHLTHFELEGLRCLVDKLESLPLHKKCVPTGIEDEDALIADVKILLEELANSDPKLALTGVPIVQWPKRDKLKFPTRPKVRVPTIPITKPHTMKPAPRLTPVRPAAASPIVSGARRRRVRCRKCKACVQGECGVCHYCRDMKKFGGPGRMKQSCVLRQCLAPRLPHSVTCSLCGEVDQNEETQDFEKKLMECCICNEIVHPGCLQMDGEGLLNEELPNCWECPKCYQEDSSEKAQKRKMEESDEEAVQAKVLRPLRSCDEPLTPPPHSPTSMLQLIHDPVSPRGMVTRSSPGAGPSDHHSASRDERFKRRQLLRLQATERTMVREKENNPSGKKELSEVEKAKIRGSYLTVTLQRPTKELHGTSIVPKLQAITASSANLRHSPRVLVQHCPARTPQRGDEEGLGGEEEEEEEEEEEDDSAEEGGAARLNGRGSWAQDGDESWMQREVWMSVFRYLSRRELCECMRVCKTWYKWCCDKRLWTKIDLSRCKAIVPQALSGIIKRQPVSLDLSWTNISKKQLTWLVNRLPGLKDLLLAGCSWSAVSALSTSSCPLLRTLDLRWAVGIKDPQIRDLLTPPADKPGQDNRSKLRNMTDFRLAGLDITDATLRLIIRHMPLLSRLDLSHCSHLTDQSSNLLTAVGSSTRYSLTELNMAGCNKLTDQTLIYLRRIANVTLIDLRGCKQITRKACEHFISDLSINSLYCLSDEKLIQKIS
- binding [6]: no binding
- binding [7]: no binding
- binding [8]: no binding

B2: FBXW2, endogenous (protein, UniProt Q9UKT8 1-454)
chain: T1 sequence
- binding [7]: binds

B3: FBXW2, tagged, co-transfected with SKP2 or SKP2-3A (Fig. 4b) (protein, UniProt Q9UKT8 1-454)
chain: T1 sequence
- binding [9]: binds
- binding (SKP2-3A): no binding

B4: FBXL3, endogenous (protein, UniProt Q9UKT7 1-428)
chain: MKRGGRDSDRNSSEEGTAEKSKKLRTTNEHSQTCDWGNLLQDIILQVFKYLPLLDRAHASQVCRNWNQVFHMPDLWRCFEFELNQPATSYLKATHPELIKQIIKRHSNHLQYVSFKVDSSKESAEAACDILSQLVNCSLKTLGLISTARPSFMDLPKSHFISALTVVFVNSKSLSSLKIDDTPVDDPSLKVLVANNSDTLKLLKMSSCPHVSPAGILCVADQCHGLRELALNYHLLSDELLLALSSEKHVRLEHLRIDVVSENPGQTHFHTIQKSSWDAFIRHSPKVNLVMYFFLYEEEFDPFFRYEIPATHLYFGRSVSKDVLGRVGMTCPRLVELVVCANGLRPLDEELIRIAERCKNLSAIGLGECEVSCSAFVEFVKMCGGRLSQLSIMEEVLIPDQKYSLEQIHWEVSKHLGRVWFPDMMPTW
- binding [6]: no binding
- binding [7]: no binding
- binding [8]: no binding

Continued, values first:

- binding [1]: binds
- binding [2]: binds
Molecule: β-TrCP1 (β-transducin repeat-containing protein 1), endogenous (from UniProt Q9Y297 1-605)

- binding [4]: binds
- binding [5]: binds
Molecule: β-TrCP1, ectopically expressed (tag not told) (from UniProt Q9Y297 1-605)
